# Source: the BET-seq Pho4 binding data (Le et al. 2018)
# The list shows a part of the results. The energies were worked out here from pooled read counts, against the library average; single values are noisy.
# Target: T1, Pho4 (S. cerevisiae) (UniProt P07270)
# T1 sequence: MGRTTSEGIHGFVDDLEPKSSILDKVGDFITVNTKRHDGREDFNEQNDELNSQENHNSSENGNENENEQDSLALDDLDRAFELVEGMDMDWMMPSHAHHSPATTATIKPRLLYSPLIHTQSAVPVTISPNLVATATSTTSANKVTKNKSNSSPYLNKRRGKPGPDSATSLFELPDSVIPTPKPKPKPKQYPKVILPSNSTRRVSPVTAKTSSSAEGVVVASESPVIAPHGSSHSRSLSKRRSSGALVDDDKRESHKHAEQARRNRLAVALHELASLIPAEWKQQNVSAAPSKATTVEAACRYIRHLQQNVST
# Assay: relative binding free energy (BET-seq); higher = weaker binding
# Conditions: reference: library average
row,Sequence,relative binding free energy [kcal/mol]
1,TGGCTCACGTGTCGTT,0.15
2,TTATACACGTGTTAAT,0.01
3,TAGTACACGTGGAGAG,0.07
4,GGAAGCACGTGGGCGG,-0.21
5,TTTCGCACGTGCTGGT,-0.14
6,TAGGTCACGTGTGTAA,0.29
7,GGGGGCACGTGAGGTG,0.23
8,TCGAGCACGTGTTTTG,-0.04
9,GGAAGCACGTGCGGTA,-0.15
10,GGTTGCACGTGATGGG,0.31
11,TTTGGCACGTGGTACA,-0.13
12,TAAGGCACGTGTGGAT,0.04
13,TCTTGCACGTGAATTT,0.33
14,AGAGGCACGTGGGCCG,-0.36
15,GTTTGCACGTGGGCTC,-0.04
16,TGCAGCACGTGTATGA,0.05
17,ATGTTCACGTGGAAGT,0.26
18,GATAACACGTGGGAGT,0.01
19,GTGCTCACGTGGGAGA,0.16
20,AGGTGCACGTGGGCGA,-0.28
21,TATCTCACGTGTGAGT,0.22
22,GGTGACACGTGGTAGG,-0.13
23,GGGTGCACGTGGTAGA,-0.07
24,ATGTACACGTGGGGGC,-0.09
25,GGTTTCACGTGGCGTG,0.26
26,GACTGCACGTGAGAGG,0.34

row,Sequence,relative binding free energy [kcal/mol]
1,TGGGCCACGTGTTTTA,0
2,TTAGTCACGTGGGTGG,0.01
3,TAGGTCACGTGAGGGA,0.33
4,TTGGTCACGTGCATGG,0.03
5,TTAGACACGTGATATA,0.19
6,CGACTCACGTGGGTGT,0.17
7,GATGACACGTGGTGGA,0.02
8,GTTTACACGTGGTTGG,0.2
9,TTTTGCACGTGGGCGA,-0.18
10,GAAATCACGTGGGGGA,0.06
11,TGTGCCACGTGTTGTA,-0.05
12,AAAGTCACGTGTTTAG,0.01
13,AGAGGCACGTGAAAGT,0.21
14,GAGGTCACGTGACGGG,0.26
15,GGGCGCACGTGGGGTT,-0.2
16,GTGATCACGTGCATGT,0.06
17,GCTTGCACGTGAAGGT,0.26
18,GTATACACGTGATTTA,0.08
19,ATTGTCACGTGAAAGA,0.32
20,TTTCGCACGTGGGGAG,-0.08
21,TCTGTCACGTGGGTAC,-0.01
22,GTCTGCACGTGGTATT,-0.03
23,CTGGGCACGTGGAGGC,-0.15
24,GTGCCCACGTGTTTGG,-0.11
25,AGAGGCACGTGAGGTA,0.17
26,GGTGTCACGTGTTTTC,0.21

row,Sequence,relative binding free energy [kcal/mol]
1,GGTCTCACGTGTGTGC,0.28
2,TGATGCACGTGTATGA,-0.04
3,GTTGTCACGTGTGCGT,0.08
4,AGTTGCACGTGAAAGT,0.19
5,TAATTCACGTGAGGTT,0.4
6,TAAGGCACGTGCGATA,-0.04
7,GGGTTCACGTGAGGTG,0.55
8,ATGATCACGTGATATA,0.33
9,CGGGCCACGTGGTGCA,-0.07
10,AGAGGCACGTGTTGAG,-0.02
11,CTTAGCACGTGGAAGG,0.07
12,ATGCCCACGTGGTGTT,-0.19
13,GTGTTCACGTGATGAA,0.33
14,GGTTGCACGTGTGGTT,0.24
15,TATGTCACGTGTACAG,0.17
16,GGGGTCACGTGCGTTC,0.15
17,ATAGCCACGTGGGGAG,-0.31
18,GGATGCACGTGGTGGT,0.05
19,ATGGTCACGTGGACAG,0.23
20,GTAGGCACGTGCGAAG,-0.09
21,TTTTGCACGTGATTTG,0.06
22,CGATTCACGTGGTTTT,0.38
23,GCGGGCACGTGGAGGC,-0.09
24,AGTAGCACGTGAGATT,0.24
25,ATTTGCACGTGGTCAA,-0.15
26,AGTTGCACGTGTGATG,0.17

row,Sequence,relative binding free energy [kcal/mol]
1,GTAGTCACGTGGAGCG,0.12
2,TGTTGCACGTGGTTGG,0
3,AAAGTCACGTGTCATG,0.21
4,TATCGCACGTGTGGGC,-0.03
5,TCAATCACGTGGCGTG,0.14
6,GTATGCACGTGTACGG,0.04
7,GAATTCACGTGGTTGC,0.38
8,TGTTACACGTGTGTAG,0.17
9,GTGGACACGTGGTTGT,-0.01
10,CGCGTCACGTGGTTGA,-0.01
11,AAGGTCACGTGGAGTG,0.23
12,TGTACCACGTGGTTGG,-0.28
13,ATAGTCACGTGAGTTG,0.31
14,AGATGCACGTGGGACT,-0.13
15,GGTGCCACGTGGATAG,-0.16
16,GAGTACACGTGACGGG,0.48
17,CGATACACGTGTGGTA,0.14
18,TGGTACACGTGTTTAG,0.15
19,TGTACCACGTGTGTAA,-0.02
20,GGTTGCACGTGTAGTC,0.06
21,GAATGCACGTGAGGTC,0.23
22,TGGCTCACGTGGTGGC,0.13
23,TGTGACACGTGACTTG,0.13
24,TGGGACACGTGGTTTT,0.2
25,TAATTCACGTGTCGGA,0.33
26,AATCTCACGTGGGGAT,0.2

row,Sequence,relative binding free energy [kcal/mol]
1,CTGTGCACGTGCTGGT,-0.18
2,GGCTGCACGTGTGGTC,0.08
3,CATTGCACGTGGAGAG,0
4,TTTCACACGTGTAGGT,0.1
5,GATATCACGTGTTATT,0.15
6,TCAGTCACGTGGAGAT,0.18
7,TTCAGCACGTGTTTGC,-0.02
8,GGTTACACGTGGTTGG,0.07
9,TGTTTCACGTGTATCT,0.3
10,TGTTACACGTGTTGAC,0.12
11,GTTGACACGTGCGTGC,-0.09
12,AGTGGCACGTGTGCAA,-0.2
13,GCGTTCACGTGATTTT,0.27
14,TAACGCACGTGGTAGG,-0.25
15,TGAGCCACGTGGTTTG,-0.08
16,GTGGCCACGTGTGGGT,0.01
17,TATCGCACGTGATTGG,0.03
18,AGCTTCACGTGTTTTG,0.24
19,TTGTTCACGTGCGCAG,0.18
20,GTGTGCACGTGGCTTG,-0.04
21,GAAATCACGTGTGGAG,0.18
22,CTTTTCACGTGTGGAT,0.28
23,ATGGTCACGTGCAGGT,0.13
24,TAGGACACGTGGGGAC,-0.12
25,GGGAGCACGTGACGGC,0.3
26,TGTATCACGTGGTGCT,0.02

row,Sequence,relative binding free energy [kcal/mol]
1,TGATGCACGTGGCTTT,-0.17
2,TGTGGCACGTGGTACA,-0.25
3,TTCTCCACGTGGTGGT,-0.11
4,TAGAGCACGTGATGAT,0.15
5,ATTTACACGTGGAGGA,0.07
6,TGGTACACGTGTGGAA,0.1
7,TATCGCACGTGAGGGG,0.14
8,TTTTACACGTGTGGCA,0.23
9,GGGTGCACGTGGCCGG,-0.11
10,TATGACACGTGAATAT,0.23
11,CGGGACACGTGTGTAT,0.01
12,CTTTGCACGTGACTTG,0.16
13,GTTAACACGTGACGGT,0.11
14,GTCTGCACGTGTGAGT,0.1
15,TTTGCCACGTGGGAGG,-0.09
16,GCGTACACGTGTGATG,0.31
17,TTTTACACGTGTTGGA,0.06
18,GGGTCCACGTGGTGGG,-0.11
19,TGTGGCACGTGGGTCA,-0.29
20,CTTTACACGTGGGTTC,0.11
21,AGTGGCACGTGGCTTG,-0.2
22,GGAGGCACGTGGCAGA,-0.21
23,CTATGCACGTGTGTAT,0
24,AGAATCACGTGCGGGG,0.2
25,TGCGTCACGTGAAGTA,0.19
26,TTAAACACGTGGGTTC,-0.07

row,Sequence,relative binding free energy [kcal/mol]
1,GGGGTCACGTGTTTAT,0.22
2,TCTTGCACGTGGGTTA,-0.04
3,ATGGTCACGTGAGAGC,0.21
4,CGTGTCACGTGTGTCA,0.2
5,TGGGCCACGTGGATTG,-0.14
6,GTTCACACGTGAGTGT,0.24
7,ATGCGCACGTGCGTTT,-0.11
8,TGAGGCACGTGGTTAG,-0.24
9,TGTTGCACGTGTTCGC,-0.1
10,TTTTTCACGTGGTCTA,0.2
11,GTATTCACGTGGCGTG,0.26
12,CTTATCACGTGGCGTG,0.04
13,ATTTGCACGTGGGAAC,0.03
14,TGCATCACGTGGATTG,0.09
15,TTAGGCACGTGATTAA,-0.15
16,CGTGGCACGTGGTTCT,-0.21
17,AAGATCACGTGTGTTG,0.1
18,TAGTTCACGTGGGGCA,0.15
19,TTATTCACGTGCGGTT,0.24
20,CTATGCACGTGCAGTG,-0.01
21,TTGGACACGTGGGGGA,-0.15
22,TCTTTCACGTGCGTGT,0.12
23,TATATCACGTGTAGGG,0.2
24,CGTAGCACGTGATTTG,0.08
25,TTGCGCACGTGTCGTG,-0.01
26,CTGGACACGTGTTGAG,0.07

row,Sequence,relative binding free energy [kcal/mol]
1,TTATTCACGTGGCGGA,0.18
2,CGATTCACGTGATGTT,0.4
3,TGGTTCACGTGGGAAA,0.08
4,ATATTCACGTGATTGC,0.31
5,CCTTGCACGTGTAGGG,0.06
6,TGAGTCACGTGTCGGG,0.18
7,GATGGCACGTGGGCTG,-0.19
8,GTTTGCACGTGATAAG,0.26
9,TCTTGCACGTGATGTA,0.14
10,AGAGACACGTGTTGAT,0.05
11,CTATTCACGTGTGTGA,0.23
12,GCGAGCACGTGTTGAG,-0.07
13,TTCTTCACGTGTCATT,0.35
14,GGCGGCACGTGTTATT,-0.02
15,GTCTTCACGTGGTTAG,0.35
16,TTTGGCACGTGCAGAT,-0.23
17,ATAGACACGTGTGAGG,0.06
18,CATGTCACGTGTGTAG,0.19
19,TTGGTCACGTGAATCT,0.27
20,GTGTTCACGTGAGCGG,0.41
21,TTATGCACGTGTAATC,0.06
22,AATAACACGTGGGGTT,-0.03
23,AAGAGCACGTGGGTTT,-0.16
24,ATTCTCACGTGAGGTT,0.32
25,CTTTGCACGTGATTTG,0.27
26,AGCTTCACGTGCGGGT,0.12

row,Sequence,relative binding free energy [kcal/mol]
1,TGAGACACGTGGAGAT,0.11
2,TGTGTCACGTGTTCCG,0.12
3,TGGGCCACGTGTGGGT,-0.02
4,TGACGCACGTGGGGAG,-0.26
5,TGTGGCACGTGGCTGT,-0.15
6,AGGGACACGTGTACTT,0.12
7,GTGATCACGTGTAGGC,0.1
8,GGTTCCACGTGTCGTG,0.2
9,TGGGGCACGTGGGACG,-0.15
10,TGTATCACGTGGAGGT,0.11
11,TGTAGCACGTGGGTGT,-0.22
12,ATGGTCACGTGCTGGT,0.03
13,AGTATCACGTGGTCTG,-0.07
14,GGGCTCACGTGTGTCT,0.3
15,CGTAACACGTGGGGGA,-0.16
16,CTTAGCACGTGGGAGT,-0.17
17,CCTTGCACGTGGGGTA,-0.13
18,AGTGGCACGTGTGGGG,-0.01
19,TTGTTCACGTGAAAAA,0.31
20,CCGGGCACGTGAGTTG,0.14
21,CTTGTCACGTGTGTGT,0.1
22,TAGGTCACGTGTTATC,-0.01
